Several values for one entry are separate records, joined by “and”; a condition that tells them apart may be missing. Equal values may be shown once. About 64,000 (15%) of roughly 420,000 compounds were called active. The inconclusive results got no clear call from the source; some entries with a clear call stand among them for comparison. The call rests on the fitted dose curve; in most records, active means well fitted inhibition curve with a large enough effect; inconclusive means small, poorly fitted or top-dose-only effect; inactive means flat fitted curve, though single readings scatter. Potencies beside an inconclusive call are fits to weak or partial responses and may not hold up.
Experiment: qHTS for Inhibitors of human tyrosyl-DNA phosphodiesterase 1 (TDP1): qHTS in cells in absence of CPT; further: nearly all actives have a fitted effect of over 55% in size
Settings: DT40 Tdp1-/- hTDP1 cells, no CPT, ATP luminescence, 48 h; activity change, negative = growth inhibition: at 46.2 µM (top of the series) unless noted
Procedure, shortened: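 Seeded 400 DT40-hTDP1 cells/well (vehicle DMSO, no 20 nM CPT); pinned compounds; ≥48 hr at 37 °C; CellTiter-Glo luminescence as viability measure.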
On the % scale 0 is the no-effect control and ±100 the full control effect; potency means the concentration at half of the fitted maximal effect; tags describe the fitted curve by direction and shape.

| Compound | Potency | activity change, negative = growth inhibition |
| --- | --- | --- |
| Cn1cccc1Cc1nnc(SCC(=O)Nc2cccc(Cl)c2)n1-c1ccc(F)cc1 | inconclusive: 23.1 µM [inhibitor, single point] | – |
| CN1CCN(C(=O)C2C3C=CC(C3)C2C(=O)O)CC1 (stereo not given) | inactive | – |
| CCc1c(CN2CCN(c3ccc(F)cc3)CC2)csc1C | inconclusive: 23.1 µM [inhibitor, single point] | – |
| COc1ccccc1-c1cc(C(F)(F)F)nc(S(=O)(=O)CCCC(=O)Nc2ccccc2F)n1 | active: 2.59 µM | – |
| Cn1cccc1C(=O)N1CCC2(CC1)CCN(c1ccccn1)CC2 | active: 14.6 µM | – |
| O=S(=O)(c1ccccc1F)N(Cc1ccco1)Cc1nnc(-c2ccccc2Br)o1 | inactive | – |
| NC(=O)/C(=C/c1ccco1)C(N)=S | inactive | – |
| COc1ccc(N(CC(=O)Nc2cc(OC)c(OC)cc2C(=O)O)S(=O)(=O)c2c(C)noc2C)cc1 | inactive | – |
| CCc1ccc(NC(=O)CSc2nnc(Cc3cccn3C)n2-c2ccc(F)cc2)cc1 | inconclusive: 23.1 µM [inhibitor, single point] | – |
| CC(=O)c1ccc(F)c(-c2cc(C)cc3c2OC(CNC(=O)c2cnc4ccccn4c2=O)C3)c1 (stereo not given) | inconclusive: 2.91 µM [inhibitor, single point] | – |
| CC1=NN(C(=O)c2csc(C)c2C)C(O)(C(F)(F)F)C1 (stereo not given) | active: 0.92 µM | – |
| COCCNc1nc2c(S(=O)(=O)c3ccccc3)nnn2c2ccc(Cl)cc12 | inconclusive: 5.8 µM [inhibitor, single point] | – |
| O=C(COc1ccc(Cl)cc1)NCCc1csc(-c2ccc(C(F)(F)F)cc2)n1 | active: 23.1 µM | – |
| O=C(COCc1ccccc1)N[C@@H]1c2ccccc2CC[C@H]1OCc1ccccc1 | inconclusive: 16.4 µM [inhibitor, partial curve, poor fit] | – |
| O=C(CCc1nnc(CCCc2ccccc2)o1)NC(C1CC1)C1CC1 | inactive | – |
| CN1CCN(CC2(O)CCN(S(=O)(=O)c3ccc(Cl)cc3)CC2)CC1 | inactive | – |
| Cc1cc(C)c(O)c(NC(=S)NC(=O)Cc2ccccc2)c1 | inconclusive: 29.1 µM [inhibitor, single point] | – |
| Cc1ccc2c(c1)cc(C(=O)N1CCN(c3ccccn3)CC1)n2C | inconclusive: 18.4 µM [inhibitor, single point] | – |
| Cc1ccc(CN2CCC(CNC(=O)Nc3ccccc3F)CC2)cc1 | inactive and inconclusive: 23.1 µM [inhibitor, single point] | – |
| COc1ccc([N+](=O)[O-])cc1NC(=O)CCCOc1ccccc1 | inconclusive: 29.1 µM [inhibitor, single point] | – |
| CCOC(=O)c1c(NC(=O)Nc2ccc(F)cc2)sc2c1CCN(C)C2 | inactive | – |
| CCOc1nc2cnccc2n(CC(=O)Nc2ccccc2F)c1=O | inactive | – |
| CCN1CCN(c2nc(N)c([N+](=O)[O-])c(Nc3ccc(C)c(C)c3)n2)CC1 | active: 16.4 µM | – |
| COC(=O)c1ccccc1NC(=S)NC(NC(=O)c1ccco1)C(Cl)(Cl)Cl (stereo not given) | inactive | – |
| Cc1ccc(S(=O)(=O)N(C)C)cc1NC(=S)N(CCC#N)Cc1cccnc1 | inconclusive: 29.1 µM [inhibitor, single point] | – |

| Compound | Potency | activity change, negative = growth inhibition |
| --- | --- | --- |
| O=c1nc(N2CCCC2)nc(Nc2ccccc2)[nH]1 | inactive | – |
| CCn1c(CNc2ccc(Cl)cc2)nnc1SCCN1CCCCC1 | active: 18.4 µM | – |
| Cc1cc(C)n2nc(Sc3ncccc3[N+](=O)[O-])nc2n1 | inconclusive: 29.1 µM [inhibitor, single point] | – |
| C=CCOc1c(CNC2CCCC2)cc(Cl)cc1OC | inconclusive: 16.4 µM [inhibitor, partial curve] | – |
| Cc1c(CCC(=O)N[C@@H](C)C(=O)O)c(=O)oc2cc3oc4c(c3cc12)CCCC4 | inactive | – |
| COC(=O)C1C(c2ccc(OC)cc2)Nc2nnc(C(F)(F)F)n2C1(C)O (stereo not given) | inactive | – |
| CC1CCCCN1C(=O)CCC(=O)Nc1nnc(C(F)(F)F)s1 (stereo not given) | inactive | – |
| COc1ccc2nc(NC(=O)Cn3cnc4ccccc4c3=O)sc2c1 | inactive | – |
| CCOc1ccc(OCCC(=O)N(CC)CC(=O)NCc2cccs2)cc1 | inactive | – |
| CCOC(=O)c1ccc(N2C(=O)C=C(N3CCOCC3)C2=O)cc1 | inactive | – |
| O=C(NC(O)C(=O)c1cccs1)c1cccnc1 (stereo not given) | inconclusive: 18.4 µM [inhibitor, single point] | – |
| Cc1oc2c(cc(NS(=O)(=O)c3ccc(Br)cc3)c3ccccc32)c1C(=O)OCc1ccccc1 | inconclusive: 29.1 µM [inhibitor, single point] | – |
| CCc1nc2c(OCc3ccc4c(c3)OCO4)cccn2c1N(C=O)Cc1ccccc1 | inconclusive: 29.1 µM [inhibitor, single point] | – |
| COc1ccc(NC(=O)C(c2ccncc2)n2c(=O)c(-c3ccco3)nc3ccccc32)cc1 (stereo not given) | active: 23.1 µM | – |
| O=C(Nc1ccc(C(=O)N2CCOCC2)cc1)C1CCCC1 | inactive | – |
| Cn1c(CNC(=O)c2ccccc2F)nnc1SCC(=O)c1ccccc1 | inactive | – |
| Cc1c(C(=O)NCCc2ccccc2)oc2ccc(S(=O)(=O)N3CCOCC3)cc12 | inconclusive: 20.6 µM [inhibitor, single point] | – |
| Cc1[nH]c2ccccc2c1C(c1ccccn1)N1CCCC1 (stereo not given) | active: 16.4 µM | – |
| CCCS(=O)(=O)c1nc(S(=O)(=O)c2ccc(C)cc2)c(N2CCC(C)CC2)s1 | inconclusive: 29.1 µM [inhibitor, single point] | – |
| O=C(Cn1c(=O)oc2cc(S(=O)(=O)N3CCCC3)ccc21)N1CCCC1 | inactive | – |
| CCOC(=O)c1ccc(NS(=O)(=O)c2c(N)n(C)c(=O)n(C)c2=O)cc1 | inconclusive: 11.6 µM [inhibitor, partial curve] | – |
| COc1ccc(S(=O)(=O)NCc2ccc(C(=O)N3CCc4ccccc4C3)cc2)cc1 | active: 23.1 µM | – |
| N#CCNC1CC(=O)N(c2ccccc2)C1=O (stereo not given) | inactive | – |
| COC(=O)c1ccc(-n2c(C)cc(C(=O)CSc3ccc(NC(C)=O)cc3)c2C)cc1 | active: 23.1 µM | – |
| OC(COc1ccc(Cl)cc1)CN1CCN(c2ccccc2)CC1 (stereo not given) | inactive | – |

| Compound | Potency | activity change, negative = growth inhibition |
| --- | --- | --- |
| Cc1nn(-c2ccc(Cl)cc2)c2[nH]c(CCl)cc(=O)c12 | inconclusive: 29.1 µM [inhibitor, single point] | – |
| NC(c1ccc(F)c(F)c1)c1nc(-c2ccc3ccccc3c2)cs1 (stereo not given) | inconclusive: 23.1 µM [inhibitor, partial curve, poor fit] | – |
| COc1ccc(Cn2c(CCC(=O)Nc3ccc(Br)c(C)c3)nc3cccnc32)cc1 | inconclusive: 29.1 µM [inhibitor, single point] | – |
| COC(=O)c1ccc2nc(-c3cccc(Cl)c3)c(Cc3ccccc3OC)n2c1 | active: 23.1 µM | – |
| COc1ccccc1C(=O)Nc1ccnn1C1CCN(C(C)CSC)CC1 (stereo not given) | inactive | – |
| C/C(=N\NC(=O)c1cc2c(s1)CCC(C)C2)c1cccnc1 (stereo not given) | inconclusive: 23.1 µM [inhibitor, single point] | – |
| COc1cc(OC)c(C(=O)NCc2nc(-c3ccccc3)no2)cc1OC | inconclusive: 23.1 µM [inhibitor, single point] | – |
| CC(=O)Oc1cc2c(cc1Cl)C(c1cccs1)CC1(CC(C)(C)NC(=S)N1)O2 (stereo not given) | active: 16.4 µM | – |
| CC1Cc2cc(S(=O)(=O)CCC(=O)Nc3cccc(F)c3)ccc2N1C(=O)C1CC1 (stereo not given) | inconclusive: 25.9 µM [inhibitor, single point] | – |
| COc1ccc2[nH]cc(CCNc3nc(-c4cccc(C#N)c4)nc4ccccc34)c2c1 | inconclusive: 29.1 µM [inhibitor, single point] | – |
| CC(=O)Nc1ccc(S(=O)(=O)N2CCC(N3CCN(Cc4ccc(C)cc4)C(=O)C3=O)CC2)cc1 | inactive | – |
| COC(=O)[C@@]1(Cc2ccc(OC)cc2)[C@H]2c3cc(C(=O)N4CCCC4)n(Cc4ccsc4Br)c3C[C@H]2CN1C(=O)c1ccccc1 | inconclusive: 23.1 µM [inhibitor, single point] | – |
| Cc1cc(C)cc(NS(=O)(=O)c2cc3[nH]c(=O)c(=O)[nH]c3cc2C)c1 | inconclusive: 16.4 µM [inhibitor, single point] | – |
| O=C(Cn1nnc(-c2ccc(C(F)(F)F)cc2)n1)NCCc1ccccc1 | – | inconclusive: -34.8% [inhibitor] |
| COC(=O)c1ccccc1NC(=O)c1cc2ccccn2n1 | inactive | – |
| O=C(CNC(=O)c1cccc(Br)c1)N/N=C/c1ccc[nH]1 | inactive | – |
| O=S(=O)(Nc1ccc2c(c1)OCCO2)c1ccc(F)c(F)c1 | inconclusive: 9.2 µM [inhibitor, partial curve] | – |
| O=C(OCC(=O)N1CCN(Cc2ccccc2)CC1)c1ccc(Cl)cc1 | inconclusive: 18.4 µM [inhibitor, single point] | – |
| O=C(CN1C(=O)/C(=C\c2ccccc2Cl)Sc2ccccc21)NCCCN1CCOCC1 | inconclusive: 29.1 µM [inhibitor, single point] | – |
| Cc1ccccc1S(=O)(=O)NCC1CCCO1 (stereo not given) | inactive | – |
| CCOC(=O)Cc1csc(SCC(=O)Nc2cc(C)ccc2OC)n1 | inconclusive: 16.4 µM [inhibitor, single point] | – |
| Cc1ccc(NC(=O)CN(C)S(=O)(=O)c2cccc3cccnc23)c(C)c1 | inconclusive: 29.1 µM [inhibitor, single point] | – |
| CCn1cc(CCC(=O)NCc2cccc(OC)c2OC)c2ccccc21 | active: 16.4 µM | – |
| C=CCN(c1ccc(F)cc1)S(=O)(=O)c1cc(C(=O)OCC(=O)N(C)C2CCS(=O)(=O)C2)ccc1Cl (stereo not given) | inactive | – |
| CC(C)(C)c1csc(N/N=C/c2cccnc2)n1 | inactive | – |
